Reference: the supplement of paper PMC3334620
Over roughly 33,000 sequences, “E-score (-0.5 to 0.5)” has its median near -0.036; the highest 2% begin near 0.37. The list shows a part of the results.

Each sequence was assayed against T1, Yer064c (UniProt P40041) (assay: PBM E-score (8-mer binding enrichment) (E-score (-0.5 to 0.5)); higher = stronger / more preferred TF binding; most listed sequences are background and not binding sites). Conditions: protein concentration: 200 nM; construct: GST-full length.
T1 sequence: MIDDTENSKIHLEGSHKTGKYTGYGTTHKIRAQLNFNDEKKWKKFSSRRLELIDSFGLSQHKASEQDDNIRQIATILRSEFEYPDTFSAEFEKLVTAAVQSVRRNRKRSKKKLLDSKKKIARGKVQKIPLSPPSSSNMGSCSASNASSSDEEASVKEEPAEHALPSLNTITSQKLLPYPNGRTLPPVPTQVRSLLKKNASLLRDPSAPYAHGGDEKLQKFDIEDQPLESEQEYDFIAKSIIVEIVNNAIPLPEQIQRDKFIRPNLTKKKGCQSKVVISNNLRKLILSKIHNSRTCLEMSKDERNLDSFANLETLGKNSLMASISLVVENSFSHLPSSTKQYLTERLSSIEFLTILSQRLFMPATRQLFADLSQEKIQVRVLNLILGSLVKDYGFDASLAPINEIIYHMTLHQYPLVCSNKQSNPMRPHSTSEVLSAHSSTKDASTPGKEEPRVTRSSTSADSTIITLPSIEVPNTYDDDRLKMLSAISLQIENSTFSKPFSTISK
Summary of the method: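 Bound GST-tagged yeast transcription factors, applied at about 100-200 nM to double-stranded universal all-10-mer Agilent arrays, were detected with fluorescent anti-GST. Scans were normalised with masliner. A modified Wilcoxon-Mann-Whitney statistic, the E-score, was assigned to each ungapped eight-base word pooled with its reverse complement by the Universal PBM Analysis Suite.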

**Q.** For AGGCCAGG, which “PBM E-score” value is on record?
**A.** -0.251

**Q.** With ATCAAAAG as the sequence, how does the “PBM E-score” value read?
**A.** 0.188

**Q.** How did the “PBM E-score” value turn out when CACCTGCA was run?
**A.** -0.0136

**Q.** How did the “PBM E-score” value turn out when GTAGCCGA was run?
**A.** -0.00862

**Q.** With GAACGTGA as the sequence, how does the “PBM E-score” value read?
**A.** 0.116

**Q.** How did the “PBM E-score” value turn out when GCCTCGTA was run?
**A.** -0.128

**Q.** For ACCCTTTC, which “PBM E-score” value is on record?
**A.** -0.185

**Q.** With ACAGACGC as the sequence, how does the “PBM E-score” value read?
**A.** -0.269

**Q.** How did the “PBM E-score” value turn out when GACGCTCC was run?
**A.** -0.268

**Q.** How did the “PBM E-score” value turn out when CATGCTAA was run?
**A.** 0.104

**Q.** For GGGCGCCC, which “PBM E-score” value is on record?
**A.** -0.184

**Q.** CGTCGGAG was tested. Which “PBM E-score” value did it give?
**A.** 0.06

**Q.** How did the “PBM E-score” value turn out when CTAATGCA was run?
**A.** 0.129

**Q.** CACGTCTC was tested. Which “PBM E-score” value did it give?
**A.** -0.0632

**Q.** ATAAACCG was tested. Which “PBM E-score” value did it give?
**A.** -0.0959

**Q.** With GCGCACCC as the sequence, how does the “PBM E-score” value read?
**A.** -0.182

**Q.** Which “PBM E-score” value does the source give for GCCTGAAA here?
**A.** -0.00965

**Q.** Which “PBM E-score” value does the source give for ACACACGG here?
**A.** 0.0742

**Q.** With AACCGACC as the sequence, how does the “PBM E-score” value read?
**A.** -0.101

**Q.** How did the “PBM E-score” value turn out when GAATAACC was run?
**A.** -0.0513

**Q.** CAACGCAG was tested. Which “PBM E-score” value did it give?
**A.** 0.0141

**Q.** With ATGCTGAG as the sequence, how does the “PBM E-score” value read?
**A.** 0.0046

**Q.** Which “PBM E-score” value does the source give for CGCAGTTA here?
**A.** -0.0186

**Q.** How did the “PBM E-score” value turn out when ACTGGTCT was run?
**A.** 0.0545

**Q.** AATAAGCC was tested. Which “PBM E-score” value did it give?
**A.** -0.169

**Q.** With ATGAGCAT as the sequence, how does the “PBM E-score” value read?
**A.** 0.0969

**Q.** CCGCCTGA was tested. Which “PBM E-score” value did it give?
**A.** -0.138

**Q.** For CAGGTTTA, which “PBM E-score” value is on record?
**A.** 0.11

**Q.** AGCGATGA was tested. Which “PBM E-score” value did it give?
**A.** 0.24

**Q.** Which “PBM E-score” value does the source give for TAAGACGA here?
**A.** 0.0133

**Q.** Which “PBM E-score” value does the source give for ATGAGAAA here?
**A.** 0.0542

**Q.** With ACGGTGCC as the sequence, how does the “PBM E-score” value read?
**A.** -0.157

**Q.** ACAAAGTC was tested. Which “PBM E-score” value did it give?
**A.** 0.156

**Q.** With CAGATATC as the sequence, how does the “PBM E-score” value read?
**A.** 0.179

**Q.** Which “PBM E-score” value does the source give for ACTAGACT here?
**A.** 0.226

**Q.** How did the “PBM E-score” value turn out when AGTGTCAA was run?
**A.** 0.271

**Q.** How did the “PBM E-score” value turn out when ACCTAGGT was run?
**A.** -0.175

**Q.** How did the “PBM E-score” value turn out when CCCGCACG was run?
**A.** -0.0871

**Q.** With CCGCTGAC as the sequence, how does the “PBM E-score” value read?
**A.** 0.209

**Q.** For AGTGAAAA, which “PBM E-score” value is on record?
**A.** 0.0331

**Q.** Which “PBM E-score” value does the source give for GTATCGCA here?
**A.** -0.0495

**Q.** How did the “PBM E-score” value turn out when GAATCACC was run?
**A.** 0.456

**Q.** CGGGACCG was tested. Which “PBM E-score” value did it give?
**A.** -0.154

**Q.** ATAATGGG was tested. Which “PBM E-score” value did it give?
**A.** 0.0748

**Q.** How did the “PBM E-score” value turn out when ATATGTAA was run?
**A.** -0.0839

**Q.** CAAGATAA was tested. Which “PBM E-score” value did it give?
**A.** 0.072

**Q.** CGGACGAC was tested. Which “PBM E-score” value did it give?
**A.** 0.093

**Q.** With ACTCCGTA as the sequence, how does the “PBM E-score” value read?
**A.** 0.0704

**Q.** AGACCAGC was tested. Which “PBM E-score” value did it give?
**A.** -0.247

**Q.** ATCGAAAT was tested. Which “PBM E-score” value did it give?
**A.** -0.0301

**Q.** Which “PBM E-score” value does the source give for AGAGATCA here?
**A.** 0.0253

**Q.** With CTGTAATC as the sequence, how does the “PBM E-score” value read?
**A.** 0.19

**Q.** How did the “PBM E-score” value turn out when ACGGAACT was run?
**A.** -0.171

**Q.** How did the “PBM E-score” value turn out when CAAGTTCG was run?
**A.** -0.277

**Q.** For ATCGACTA, which “PBM E-score” value is on record?
**A.** 0.251

**Q.** How did the “PBM E-score” value turn out when ACCCAAGG was run?
**A.** -0.00554

**Q.** For TAACGGGA, which “PBM E-score” value is on record?
**A.** 0.00305

**Q.** Which “PBM E-score” value does the source give for CAAGATGA here?
**A.** 0.244

**Q.** How did the “PBM E-score” value turn out when TATCAGCA was run?
**A.** -0.0633

**Q.** GCTCCGAC was tested. Which “PBM E-score” value did it give?
**A.** -0.0559

**Q.** For ATTCTGCA, which “PBM E-score” value is on record?
**A.** 0.207

**Q.** With ATCTGGGC as the sequence, how does the “PBM E-score” value read?
**A.** -0.268

**Q.** With ATGCGCCA as the sequence, how does the “PBM E-score” value read?
**A.** -0.351

**Q.** AGACGTTC was tested. Which “PBM E-score” value did it give?
**A.** -0.092

**Q.** For CCAAACCG, which “PBM E-score” value is on record?
**A.** -0.0301

**Q.** With GTCAAGAC as the sequence, how does the “PBM E-score” value read?
**A.** 0.19

**Q.** Which “PBM E-score” value does the source give for ACCTAAAG here?
**A.** -0.0663

**Q.** GACCGCAC was tested. Which “PBM E-score” value did it give?
**A.** -0.161

**Q.** For CTTATCGC, which “PBM E-score” value is on record?
**A.** 0.0289

**Q.** With TGGCACCA as the sequence, how does the “PBM E-score” value read?
**A.** -0.469

**Q.** How did the “PBM E-score” value turn out when ACGGTTCC was run?
**A.** -0.0675

**Q.** ATTGTGGG was tested. Which “PBM E-score” value did it give?
**A.** 0.108

**Q.** For GCAGTCCA, which “PBM E-score” value is on record?
**A.** 0.123

**Q.** AGCGCGAT was tested. Which “PBM E-score” value did it give?
**A.** 0.047

**Q.** CCAATTCG was tested. Which “PBM E-score” value did it give?
**A.** -0.0585

**Q.** With AAGGTCTG as the sequence, how does the “PBM E-score” value read?
**A.** -0.0928

**Q.** Which “PBM E-score” value does the source give for ATTTCGCA here?
**A.** -0.03

**Q.** Which “PBM E-score” value does the source give for AGTAAGCC here?
**A.** -0.179

**Q.** With CGTAAGTA as the sequence, how does the “PBM E-score” value read?
**A.** 0.046

**Q.** AGATAAGC was tested. Which “PBM E-score” value did it give?
**A.** -0.11

**Q.** With CTCACATC as the sequence, how does the “PBM E-score” value read?
**A.** 0.0966

**Q.** CCCAAAGG was tested. Which “PBM E-score” value did it give?
**A.** -0.165

**Q.** Which “PBM E-score” value does the source give for AGGGAGAA here?
**A.** -0.0717

**Q.** How did the “PBM E-score” value turn out when CAACCAAA was run?
**A.** 0.0356

**Q.** Which “PBM E-score” value does the source give for ACAAGTAG here?
**A.** 0.00472

**Q.** For AACTCTAC, which “PBM E-score” value is on record?
**A.** -0.212
